Drawing on publication PMC8641752, this text covers binding for 13 molecules.

These are yes or no findings as the source states them, for the method shown. In cells and extracts the contact can be indirect. Some entries that bind do so weakly or less than the wild type. Tags and fused reporters may be left off the sequences shown.

T1: Hmg2-GFP (S. cerevisiae) (UniProt P12684)
T1 sequence (chain, polyubiquitin chain conjugated in cells (sites not printed)): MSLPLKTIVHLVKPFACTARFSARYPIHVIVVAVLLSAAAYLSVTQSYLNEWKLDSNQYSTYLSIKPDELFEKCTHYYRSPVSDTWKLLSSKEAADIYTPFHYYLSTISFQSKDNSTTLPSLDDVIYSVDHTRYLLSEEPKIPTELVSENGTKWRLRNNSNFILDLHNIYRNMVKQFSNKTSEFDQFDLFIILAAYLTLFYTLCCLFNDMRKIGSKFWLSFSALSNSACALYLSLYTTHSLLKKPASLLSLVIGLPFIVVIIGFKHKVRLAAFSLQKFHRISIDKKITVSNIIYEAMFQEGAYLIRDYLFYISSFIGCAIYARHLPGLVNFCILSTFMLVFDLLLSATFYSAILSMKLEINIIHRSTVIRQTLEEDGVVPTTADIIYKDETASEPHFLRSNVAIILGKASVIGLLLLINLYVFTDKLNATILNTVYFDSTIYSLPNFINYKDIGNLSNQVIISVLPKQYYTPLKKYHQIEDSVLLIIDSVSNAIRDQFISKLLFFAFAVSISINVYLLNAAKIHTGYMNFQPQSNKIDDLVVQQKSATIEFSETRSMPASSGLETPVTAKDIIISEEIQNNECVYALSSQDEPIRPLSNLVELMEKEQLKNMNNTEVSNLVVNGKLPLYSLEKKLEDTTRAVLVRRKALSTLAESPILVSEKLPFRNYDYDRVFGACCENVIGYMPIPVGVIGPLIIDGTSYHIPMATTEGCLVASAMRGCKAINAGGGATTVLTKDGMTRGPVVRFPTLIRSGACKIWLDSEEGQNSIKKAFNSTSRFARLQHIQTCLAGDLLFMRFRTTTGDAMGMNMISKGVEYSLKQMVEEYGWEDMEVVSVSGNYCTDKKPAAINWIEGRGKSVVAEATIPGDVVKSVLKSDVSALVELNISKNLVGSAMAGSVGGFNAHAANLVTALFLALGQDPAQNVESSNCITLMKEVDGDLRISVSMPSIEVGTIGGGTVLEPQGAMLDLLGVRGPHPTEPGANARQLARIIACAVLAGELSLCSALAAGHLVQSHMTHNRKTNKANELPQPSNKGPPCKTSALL

B1: Der1-HA (protein, UniProt P38307 1-211)
chain: MDAVILNLLGDIPLVTRLWTIGCLVLSGLTSLRIVDPGKVVYSYDLVFKKGQYGRLLYSIFDYGAFNWISMINIFVSANHLSTLENSFNLRRKFCWIIFLLLVILVKMTSIEQPAASLGVLLHENLVYYELKKNGNQMNVRFFGAIDVSPSIFPIYMNAVMYFVYKRSWLEIAMNFMPGHVIYYMDDIIGKIYGIDLCKSPYDWFRNTETP
B2: Dfm1-W62A (protein, UniProt Q12743 1-341)
chain: MAGPRNVRTLHGNGGRNNDVMGPKEFWLNIPPITRTLFTLAIVMTIVGRLNLINPWYFIYVANLTFKKVQIWRLLTSCVMLSSRAMPALMELYSIYDRSSQLERGHFGPGLSNRRGPMVTVDYAYYLCFCILAITTATTIIYGSYYPVVLTSGFISCITYTWSIDNANVQIMFYGLIPVWGKYFPLIQLFISFVFNEGDFVISLIGFTTGYLYTCLDTHTLGPIWGMISRKADPTYGISPNGKFSTPWWFTSLYARITGAHNETATFNNNFANVPSSQRETRTFSGRGQRLGTAPATLSQTSGTDSGRASGSQLRSGPSNLNQFQGRGQRVGQTNSPSDSQ
B3: Dfm1-F58A (protein, UniProt Q12743 1-341)
chain: MAGPRNVRTLHGNGGRNNDVMGPKEFWLNIPPITRTLFTLAIVMTIVGRLNLINPWYAIYVWNLTFKKVQIWRLLTSCVMLSSRAMPALMELYSIYDRSSQLERGHFGPGLSNRRGPMVTVDYAYYLCFCILAITTATTIIYGSYYPVVLTSGFISCITYTWSIDNANVQIMFYGLIPVWGKYFPLIQLFISFVFNEGDFVISLIGFTTGYLYTCLDTHTLGPIWGMISRKADPTYGISPNGKFSTPWWFTSLYARITGAHNETATFNNNFANVPSSQRETRTFSGRGQRLGTAPATLSQTSGTDSGRASGSQLRSGPSNLNQFQGRGQRVGQTNSPSDSQ
B4: Dfm1-L75A (protein, UniProt Q12743 1-341)
chain: MAGPRNVRTLHGNGGRNNDVMGPKEFWLNIPPITRTLFTLAIVMTIVGRLNLINPWYFIYVWNLTFKKVQIWRLATSCVMLSSRAMPALMELYSIYDRSSQLERGHFGPGLSNRRGPMVTVDYAYYLCFCILAITTATTIIYGSYYPVVLTSGFISCITYTWSIDNANVQIMFYGLIPVWGKYFPLIQLFISFVFNEGDFVISLIGFTTGYLYTCLDTHTLGPIWGMISRKADPTYGISPNGKFSTPWWFTSLYARITGAHNETATFNNNFANVPSSQRETRTFSGRGQRLGTAPATLSQTSGTDSGRASGSQLRSGPSNLNQFQGRGQRVGQTNSPSDSQ
B5: Dfm1-V69A (protein, UniProt Q12743 1-341)
chain: MAGPRNVRTLHGNGGRNNDVMGPKEFWLNIPPITRTLFTLAIVMTIVGRLNLINPWYFIYVWNLTFKKAQIWRLLTSCVMLSSRAMPALMELYSIYDRSSQLERGHFGPGLSNRRGPMVTVDYAYYLCFCILAITTATTIIYGSYYPVVLTSGFISCITYTWSIDNANVQIMFYGLIPVWGKYFPLIQLFISFVFNEGDFVISLIGFTTGYLYTCLDTHTLGPIWGMISRKADPTYGISPNGKFSTPWWFTSLYARITGAHNETATFNNNFANVPSSQRETRTFSGRGQRLGTAPATLSQTSGTDSGRASGSQLRSGPSNLNQFQGRGQRVGQTNSPSDSQ
B6: Dfm1-W72A (protein, UniProt Q12743 1-341)
chain: MAGPRNVRTLHGNGGRNNDVMGPKEFWLNIPPITRTLFTLAIVMTIVGRLNLINPWYFIYVWNLTFKKVQIARLLTSCVMLSSRAMPALMELYSIYDRSSQLERGHFGPGLSNRRGPMVTVDYAYYLCFCILAITTATTIIYGSYYPVVLTSGFISCITYTWSIDNANVQIMFYGLIPVWGKYFPLIQLFISFVFNEGDFVISLIGFTTGYLYTCLDTHTLGPIWGMISRKADPTYGISPNGKFSTPWWFTSLYARITGAHNETATFNNNFANVPSSQRETRTFSGRGQRLGTAPATLSQTSGTDSGRASGSQLRSGPSNLNQFQGRGQRVGQTNSPSDSQ
B7: Dfm1-I71A (protein, UniProt Q12743 1-341)
chain: MAGPRNVRTLHGNGGRNNDVMGPKEFWLNIPPITRTLFTLAIVMTIVGRLNLINPWYFIYVWNLTFKKVQAWRLLTSCVMLSSRAMPALMELYSIYDRSSQLERGHFGPGLSNRRGPMVTVDYAYYLCFCILAITTATTIIYGSYYPVVLTSGFISCITYTWSIDNANVQIMFYGLIPVWGKYFPLIQLFISFVFNEGDFVISLIGFTTGYLYTCLDTHTLGPIWGMISRKADPTYGISPNGKFSTPWWFTSLYARITGAHNETATFNNNFANVPSSQRETRTFSGRGQRLGTAPATLSQTSGTDSGRASGSQLRSGPSNLNQFQGRGQRVGQTNSPSDSQ
B8: Dfm1-L64A (protein, UniProt Q12743 1-341)
chain: MAGPRNVRTLHGNGGRNNDVMGPKEFWLNIPPITRTLFTLAIVMTIVGRLNLINPWYFIYVWNATFKKVQIWRLLTSCVMLSSRAMPALMELYSIYDRSSQLERGHFGPGLSNRRGPMVTVDYAYYLCFCILAITTATTIIYGSYYPVVLTSGFISCITYTWSIDNANVQIMFYGLIPVWGKYFPLIQLFISFVFNEGDFVISLIGFTTGYLYTCLDTHTLGPIWGMISRKADPTYGISPNGKFSTPWWFTSLYARITGAHNETATFNNNFANVPSSQRETRTFSGRGQRLGTAPATLSQTSGTDSGRASGSQLRSGPSNLNQFQGRGQRVGQTNSPSDSQ
B9: Dfm1-Q70A (protein, UniProt Q12743 1-341)
chain: MAGPRNVRTLHGNGGRNNDVMGPKEFWLNIPPITRTLFTLAIVMTIVGRLNLINPWYFIYVWNLTFKKVAIWRLLTSCVMLSSRAMPALMELYSIYDRSSQLERGHFGPGLSNRRGPMVTVDYAYYLCFCILAITTATTIIYGSYYPVVLTSGFISCITYTWSIDNANVQIMFYGLIPVWGKYFPLIQLFISFVFNEGDFVISLIGFTTGYLYTCLDTHTLGPIWGMISRKADPTYGISPNGKFSTPWWFTSLYARITGAHNETATFNNNFANVPSSQRETRTFSGRGQRLGTAPATLSQTSGTDSGRASGSQLRSGPSNLNQFQGRGQRVGQTNSPSDSQ
B10: Dfm1-K67A (protein, UniProt Q12743 1-341)
chain: MAGPRNVRTLHGNGGRNNDVMGPKEFWLNIPPITRTLFTLAIVMTIVGRLNLINPWYFIYVWNLTFAKVQIWRLLTSCVMLSSRAMPALMELYSIYDRSSQLERGHFGPGLSNRRGPMVTVDYAYYLCFCILAITTATTIIYGSYYPVVLTSGFISCITYTWSIDNANVQIMFYGLIPVWGKYFPLIQLFISFVFNEGDFVISLIGFTTGYLYTCLDTHTLGPIWGMISRKADPTYGISPNGKFSTPWWFTSLYARITGAHNETATFNNNFANVPSSQRETRTFSGRGQRLGTAPATLSQTSGTDSGRASGSQLRSGPSNLNQFQGRGQRVGQTNSPSDSQ
B11: Dfm1-K68A (protein, UniProt Q12743 1-341)
chain: MAGPRNVRTLHGNGGRNNDVMGPKEFWLNIPPITRTLFTLAIVMTIVGRLNLINPWYFIYVWNLTFKAVQIWRLLTSCVMLSSRAMPALMELYSIYDRSSQLERGHFGPGLSNRRGPMVTVDYAYYLCFCILAITTATTIIYGSYYPVVLTSGFISCITYTWSIDNANVQIMFYGLIPVWGKYFPLIQLFISFVFNEGDFVISLIGFTTGYLYTCLDTHTLGPIWGMISRKADPTYGISPNGKFSTPWWFTSLYARITGAHNETATFNNNFANVPSSQRETRTFSGRGQRLGTAPATLSQTSGTDSGRASGSQLRSGPSNLNQFQGRGQRVGQTNSPSDSQ
B12: Dfm1-R73A (protein, UniProt Q12743 1-341)
chain: MAGPRNVRTLHGNGGRNNDVMGPKEFWLNIPPITRTLFTLAIVMTIVGRLNLINPWYFIYVWNLTFKKVQIWALLTSCVMLSSRAMPALMELYSIYDRSSQLERGHFGPGLSNRRGPMVTVDYAYYLCFCILAITTATTIIYGSYYPVVLTSGFISCITYTWSIDNANVQIMFYGLIPVWGKYFPLIQLFISFVFNEGDFVISLIGFTTGYLYTCLDTHTLGPIWGMISRKADPTYGISPNGKFSTPWWFTSLYARITGAHNETATFNNNFANVPSSQRETRTFSGRGQRLGTAPATLSQTSGTDSGRASGSQLRSGPSNLNQFQGRGQRVGQTNSPSDSQ
B13: Dfm1-F66A (protein, UniProt Q12743 1-341)
chain: MAGPRNVRTLHGNGGRNNDVMGPKEFWLNIPPITRTLFTLAIVMTIVGRLNLINPWYFIYVWNLTAKKVQIWRLLTSCVMLSSRAMPALMELYSIYDRSSQLERGHFGPGLSNRRGPMVTVDYAYYLCFCILAITTATTIIYGSYYPVVLTSGFISCITYTWSIDNANVQIMFYGLIPVWGKYFPLIQLFISFVFNEGDFVISLIGFTTGYLYTCLDTHTLGPIWGMISRKADPTYGISPNGKFSTPWWFTSLYARITGAHNETATFNNNFANVPSSQRETRTFSGRGQRLGTAPATLSQTSGTDSGRASGSQLRSGPSNLNQFQGRGQRVGQTNSPSDSQ

The target of the assay is T1, Hmg2-GFP (S. cerevisiae). Nature of the assay: co-IP; substrate (Hmg2-GFP, Ste6*-GFP, CPY*-GFP with GFP-Trap; Pdr5*-Myc with Myc Trap) precipitated from yeast microsomes solubilised in Tween IP buffer (500 mM NaCl, 50 mM Tris pH 7.5, 10 mM EDTA, 1.5% Tween-20), overnight 4°C; blots with anti-HA, anti-Cdc48.
With B1, the binding result was “no binding”.
The entry for B2 is “binds”; for B3 it is “no binding”; for B4 it is “no binding”.
Under B5 stands “binds”; under B6, “no binding”.
The entry for B7 is “no binding”; for B8 it is “no binding”.
For B9, the binding entry was “no binding”.
Turning to B10, the binding result is on record as “no binding”.
As to B11, the binding entry is “no binding”.
Under B12 stands “no binding”; under B13, “binds”.
